Out of some 150,000 compounds screened, about 540 (0.36%) showed an effect of 50% or more. The list shows a part of the results.
The molecules below were run on Plasmodium falciparum (assay: Primary screen in NF54 nanoGlo assay, in single point, at 2uM, 72h; a lower Z score goes with more inhibition). Conditions: timepoint 72 hour.
Assay type: functional, Erythrocyte

| SMILES | % Inhibition | Z score |
| --- | --- | --- |
| Cc1nc(C(=O)NC(C)C(C)NC(=O)OC(C)(C)C)c(C)o1 (stereo unspecified) | -1% | 0.13 |
| CC(C)(CO)N1CCN(S(=O)(=O)CCc2ccccc2)CC1 | 0% | -0.05 |
| O=C1COc2cc(C(=O)N3CCCCC3)ccc2N1 | -10% | 1.89 |
| CN(C)C(=O)c1cccnc1O[C@H]1CCN(C(=O)CC2CCCCC2)C1 | -5% | 0.86 |
| CC(=O)c1ccc(-c2ccc(C(=O)NCC3(O)CCCCCC3)o2)cc1 | -7% | 0.95 |
| O=C(C1CCOCC1)N1CCC[C@H](c2nc(C3CCOCC3)no2)C1 | 2% | -0.25 |
| O=C(c1ccc(Cl)cc1)N1CCc2[nH]cnc2C1 | -13% | 1.52 |
| Cc1[nH]c2c(F)cc(F)cc2c1CCNC(=O)[C@@H](C)Cn1cccn1 | -1% | 0.14 |
| Cc1nn(C)cc1C(=O)NCCCN1CCCC1=O | -3% | 0.54 |
| COC(=O)C(NC(=O)C1CCOC1)C(C)C (stereo unspecified) | -10% | 1.49 |
| N#Cc1ccccc1S(=O)(=O)N1CCc2ncncc2C1 | 0% | -0.06 |
| CN(C)C(=O)CCCNC(=O)Cc1cccnc1 | -10% | 1.02 |
| CC(C)Cn1ncnc1CN1C[C@H]2CCS(=O)(=O)[C@H]2C1 | -5% | 0.69 |
| COC(=O)CCc1cncc(NC(=O)COc2ccc(C)c(C)c2)c1 | -12% | 2.07 |
| CC1=C(C)CN(c2ccc(S(N)(=O)=O)cc2C(F)(F)F)CC1 | -5% | 1 |
| CCN1CCN(C(=O)c2cccc(Nc3c(Oc4ccc(C)c(C)c4)cnn(-c4cccc(Cl)c4)c3=O)c2)CC1 | 0% | -0.04 |
| CC[C@@H](C(=O)NC)N(c1ccccc1F)S(C)(=O)=O | 21% | -2.45 |
| C[C@H]1C(=O)N(CCc2cc3ccccc3s2)C(=O)N1C | 13% | -1.3 |
| O=C(NCCc1cccs1)c1cccs1 | 5% | -0.72 |
| CN(C(=O)c1c(Cl)cccc1OCC1CC1)C1CS(=O)(=O)C1 | 3% | -0.4 |
| COc1cc2c(c(CN3CCC(Cn4ccnn4)CC3)c1)O[C@@H](C)C2 | -12% | 1.13 |
| Cc1ccc2nsnc2c1S(=O)(=O)N1C[C@H]2CC[C@@H](C1)N(C)C2=O | -4% | 0.75 |

| SMILES | % Inhibition | Z score |
| --- | --- | --- |
| COc1ccc(NC(=O)[C@@H](NC(C)=O)C(=O)NCc2ccccc2OC)cc1 | -10% | 1.25 |
| NC(=O)[C@@H]1C[C@@H](F)CN1c1nc2ccccc2c(=O)[nH]1 | -8% | 0.97 |
| O=C1O[C@H](C(=O)N2CCCC2)Cc2ccccc21 | -7% | 0.73 |
| CCN1CCC(CC(=O)NCCCc2nc(C)c(C)s2)CC1 | -26% | 2.64 |
| CCCc1sc(N(C(=O)Cc2ccccc2)c2cccc(OC)c2)nc1-c1ccc(OC)cc1 | -13% | 1.64 |
| CC(=O)Nc1cc(NC2CCCC2)ccc1Cl | 1% | -0.06 |
| Cc1cccc(F)c1NC(=O)NC(C)(C)C(=O)NCC(C)(C)C | 7% | -1.25 |
| Cc1csc(CN(C)S(=O)(=O)N2CCCCCC2)n1 | -8% | 1.47 |
| CN(CC1(CO)CCC1)C(=O)CCN1CCCCC1=O | -19% | 1.71 |
| C[C@@H](C(=O)NCCCOc1ccc(F)cc1)n1ccnc1 | -15% | 2.78 |
| C[C@H](NCc1ncnn1CC(F)F)C1CCCC1 | -9% | 1.56 |
| CCN(CC)C(=O)Cn1nc2nc(Nc3ccccc3)ccn2c1=O | 2% | -0.28 |
| CC[C@H](NS(=O)(=O)c1c(C)noc1C)c1nccs1 | -17% | 1.52 |
| CCOc1ccc(CC(=O)N2CC3(C[C@@H](c4nnc(-c5ccccc5)o4)N(C)C3)C2)cc1 | 4% | -0.42 |
| CCCn1nccc1S(=O)(=O)N1CCC(CCOC)CC1 | -17% | 1.55 |
| COc1ccc(NC(=O)N2CCCS(=O)(=O)CC2)cc1OC(C)C | 3% | -0.44 |
| CC(C)NC(=O)N[C@H]1CCN2C(=O)c3cc(-c4ccc(F)cc4F)ccc3NC(=O)[C@@H]2C1 | -1% | 0.12 |
| CCc1nc(CN[C@@H](Cc2ccccn2)C2CC2)cs1 | -3% | 0.41 |
| Cc1ccc(S(=O)(=O)NCC(=O)N2CCC[C@H]2c2ccc3c(c2)OCCCO3)cc1C | 35% | -4.54 |
| COCCCCN1CCN(C(=O)NCc2c(F)ccc(C)c2F)CC1 | 4% | -0.78 |
| Cc1ccc(O)c(C(=O)N[C@H](c2nccn2C)C2CC2)c1 | -5% | 0.92 |
